# Laboratory results published in the supplement of paper PMC8728848.
# This is one part of the list.
# Assays:
# Test in all cases: glycan array binding signal (z-score within array); higher = stronger binding
# Settings in all cases: glycan notation: IUPAC condensed, linker removed
# [1] = biological target: GalNAc(b1-4)GlcNAc(b1-2)Man
# Method in brief: (§1)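 The binding signal is a Z-score computed within each array and averaged over linkers. Arrays of the same protein sequence at different concentrations or buffers were also averaged together. Data originate from 3228 arrays in the Consortium for Functional Glycomics database, kept only where the protein sequence was available.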
# [2] = biological target: GalNAc(b1-4)GlcNAc(b1-2)Man(a1-3)[GalNAc(b1-4)GlcNAc(b1-2)Man(a1-6)]Man(b1-4)GlcNAc(b1-4)GlcNAc
# Method in brief: as §1
# [3] = biological target: GalNAc(b1-4)GlcNAc(b1-3)GalNAc(b1-4)GlcNAc
# Method in brief: as §1
# [4] = biological target: GalNAc(b1-4)GlcNAc6S
# Method in brief: as §1
# [5] = biological target: GalNAc(b1-6)GalNAc
# Method in brief: as §1
# [6] = biological target: GalNAc3S(b1-4)GlcNAc
# Method in brief: as §1
# [7] = biological target: GalNAc3S(b1-4)GlcNAc3S
# Method in brief: as §1
# [8] = biological target: GalNAc3S(b1-4)[Fuc(a1-3)]GlcNAc
# Method in brief: as §1
# [9] = biological target: GalNAc4S6S(b1-4)GlcNAc
# Method in brief: as §1
# [10] = biological target: GalNAc6S(b1-4)GlcNAc
# Method in brief: as §1
# [11] = biological target: Glc(a1-4)Glc
# Method in brief: as §1
# [12] = biological target: Glc(a1-4)Glc(a1-4)Glc(a1-4)Glc
# Method in brief: as §1
# [13] = biological target: Glc(a1-6)Glc(a1-6)Glc
# Method in brief: as §1
# [14] = biological target: Glc(a1-6)Glc(a1-6)Glc(a1-6)Glc
# Method in brief: as §1
# [15] = biological target: Glc(b1-4)Glc
# Method in brief: as §1
# [16] = biological target: Glc(b1-6)Glc
# Method in brief: as §1
# [17] = biological target: GlcA(b1-3)Gal
# Method in brief: as §1
# [18] = biological target: GlcA(b1-3)GlcNAc
# Method in brief: as §1
# [19] = biological target: GlcA(b1-6)Gal
# Method in brief: as §1
# [20] = biological target: GlcA3S(b1-3)Gal(b1-4)GlcNAc(b1-2)Man
# Method in brief: as §1
# [21] = biological target: GlcA3S(b1-3)Gal(b1-4)GlcNAc(b1-3)Gal(b1-4)Glc
# Method in brief: as §1
# [22] = biological target: GlcNAc(a1-3)Gal(b1-4)GlcNAc
# Method in brief: as §1
# [23] = biological target: GlcNAc(a1-4)Gal(b1-3)GlcNAc
# Method in brief: as §1
# [24] = biological target: GlcNAc(a1-4)Gal(b1-4)GalNAc
# Method in brief: as §1
# [25] = biological target: GlcNAc(a1-4)Gal(b1-4)GlcNAc
# Method in brief: as §1
# [26] = biological target: GlcNAc(a1-4)Gal(b1-4)GlcNAc(b1-3)Gal(b1-4)Glc
# Method in brief: as §1
# [27] = biological target: GlcNAc(a1-4)Gal(b1-4)GlcNAc(b1-3)Gal(b1-4)GlcNAc
# Method in brief: as §1
# [28] = biological target: GlcNAc(a1-4)Gal(b1-4)GlcNAc(b1-3)Gal(b1-4)GlcNAc(b1-3)Gal(b1-4)GlcNAc
# Method in brief: as §1
# [29] = biological target: GlcNAc(a1-4)Gal(b1-4)GlcNAc(b1-3)Gal(b1-4)[Fuc(a1-3)]GlcNAc(b1-3)Gal(b1-4)[Fuc(a1-3)]GlcNAc
# Method in brief: as §1
# [30] = biological target: GlcNAc(a1-6)Gal(b1-4)GlcNAc
# Method in brief: as §1
# [31] = biological target: GlcNAc(b1-2)Gal(b1-3)GalNAc
# Method in brief: as §1
# [32] = biological target: GlcNAc(b1-2)Man(a1-3)[GlcNAc(b1-2)Man(a1-6)]Man(b1-4)GlcNAc(b1-4)GlcNAc
# Method in brief: as §1
# [33] = biological target: GlcNAc(b1-2)Man(a1-3)[GlcNAc(b1-2)Man(a1-6)]Man(b1-4)GlcNAc(b1-4)[Fuc(a1-6)]GlcNAc
# Method in brief: as §1
# [34] = biological target: GlcNAc(b1-2)Man(a1-3)[GlcNAc(b1-4)][GlcNAc(b1-2)Man(a1-6)]Man(b1-4)GlcNAc(b1-4)GlcNAc
# Method in brief: as §1
# [35] = biological target: GlcNAc(b1-2)Man(a1-3)[GlcNAc(b1-4)][GlcNAc(b1-2)Man(a1-6)]Man(b1-4)GlcNAc(b1-4)[Fuc(a1-6)]GlcNAc
# Method in brief: as §1
# [36] = biological target: GlcNAc(b1-2)[GlcNAc(b1-4)]Man(a1-3)[GlcNAc(b1-2)Man(a1-6)]Man(b1-4)GlcNAc(b1-4)GlcNAc
# Method in brief: as §1
# [37] = biological target: GlcNAc(b1-2)[GlcNAc(b1-4)]Man(a1-3)[GlcNAc(b1-4)][GlcNAc(b1-2)Man(a1-6)]Man(b1-4)GlcNAc(b1-4)GlcNAc
# Method in brief: as §1
# [38] = biological target: GlcNAc(b1-2)[GlcNAc(b1-4)]Man(a1-3)[GlcNAc(b1-4)][GlcNAc(b1-2)[GlcNAc(b1-6)]Man(a1-6)]Man(b1-4)GlcNAc(b1-4)GlcNAc
# Method in brief: as §1
# [39] = biological target: GlcNAc(b1-2)[GlcNAc(b1-4)]Man(a1-3)[GlcNAc(b1-4)][GlcNAc(b1-2)[GlcNAc(b1-6)]Man(a1-6)]Man(b1-4)GlcNAc(b1-4)[Fuc(a1-6)]GlcNAc
# Method in brief: as §1
# [40] = biological target: GlcNAc(b1-2)[GlcNAc(b1-6)]Man(a1-6)[GlcNAc(b1-2)Man(a1-3)]Man(b1-4)GlcNAc(b1-4)GlcNAc
# Method in brief: as §1
# [41] = biological target: GlcNAc(b1-2)[GlcNAc(b1-6)]Man(a1-6)[GlcNAc(b1-2)Man(a1-3)]Man(b1-4)GlcNAc(b1-4)[Fuc(a1-6)]GlcNAc
# Method in brief: as §1
# [42] = biological target: GlcNAc(b1-2)[GlcNAc(b1-6)]Man(a1-6)[GlcNAc(b1-4)][GlcNAc(b1-2)Man(a1-3)]Man(b1-4)GlcNAc(b1-4)GlcNAc
# Method in brief: as §1
# [43] = biological target: GlcNAc(b1-3)Fuc
# Method in brief: as §1
# [44] = biological target: GlcNAc(b1-3)Gal
# Method in brief: as §1
# [45] = biological target: GlcNAc(b1-3)Gal(b1-3)GalNAc
# Method in brief: as §1
binder,measurement,setting,value
"MPA (Maclura pomifera), P18674 (protein) GVTFDDGAYTGIREINFEYNSETAIGGLRVTYDLNGMPFVAEDHKSFITGFKPVKISLEFPSEYIVEVSGYVGKVEGYTVIRSLTFKTNKQTYGPYGVTNGTPFSLPIENGLIVGFKGSIGYWLDYFSIYLSL",glycan array binding signal (z-score),[1],-0.237
same,glycan array binding signal (z-score),[2],0.805
same,glycan array binding signal (z-score),[3],-0.155
same,glycan array binding signal (z-score),[4],-0.25
same,glycan array binding signal (z-score),[5],-0.326
same,glycan array binding signal (z-score),[6],-0.277
same,glycan array binding signal (z-score),[7],-0.375
same,glycan array binding signal (z-score),[8],-0.307
same,glycan array binding signal (z-score),[9],-0.468
same,glycan array binding signal (z-score),[10],-0.283
same,glycan array binding signal (z-score),[11],0.004
same,glycan array binding signal (z-score),[12],-0.129
same,glycan array binding signal (z-score),[13],-0.165
same,glycan array binding signal (z-score),[14],-0.175
same,glycan array binding signal (z-score),[15],-0.149
same,glycan array binding signal (z-score),[16],-0.208
same,glycan array binding signal (z-score),[17],-0.187
same,glycan array binding signal (z-score),[18],-0.122
same,glycan array binding signal (z-score),[19],-0.218
same,glycan array binding signal (z-score),[20],-0.571
same,glycan array binding signal (z-score),[21],-0.252
same,glycan array binding signal (z-score),[22],-0.191
same,glycan array binding signal (z-score),[23],-0.235
same,glycan array binding signal (z-score),[24],-0.276
same,glycan array binding signal (z-score),[25],-0.238
same,glycan array binding signal (z-score),[26],-0.372
same,glycan array binding signal (z-score),[27],-0.278
same,glycan array binding signal (z-score),[28],-0.184
same,glycan array binding signal (z-score),[29],-0.148
same,glycan array binding signal (z-score),[30],-0.263
same,glycan array binding signal (z-score),[31],-0.159
same,glycan array binding signal (z-score),[32],-0.231
same,glycan array binding signal (z-score),[33],-0.08
same,glycan array binding signal (z-score),[34],-0.296
same,glycan array binding signal (z-score),[35],-0.195
same,glycan array binding signal (z-score),[36],-0.179
same,glycan array binding signal (z-score),[37],-0.226
same,glycan array binding signal (z-score),[38],-0.261
same,glycan array binding signal (z-score),[39],-0.299
same,glycan array binding signal (z-score),[40],-0.22
same,glycan array binding signal (z-score),[41],-0.266
same,glycan array binding signal (z-score),[42],-0.327
same,glycan array binding signal (z-score),[43],-0.053
same,glycan array binding signal (z-score),[44],-0.067
same,glycan array binding signal (z-score),[45],0.154
